Measured values reported in the supplement of paper PMC8728848.
The list shows a part of the results.

Key:
Experiment in all cases: glycan array binding signal (z-score within array); higher = stronger binding
Conditions in all cases: glycan notation: IUPAC condensed, linker removed
Fuc(a1-2)Gal = molecular target: Fuc(a1-2)Gal
In short: (§1)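 Columns mapping to the same glycan were averaged after glycan names were converted to IUPAC-condensed notation. The data come from 3228 arrays in the Consortium for Functional Glycomics database, limited to those with an available protein sequence. Binding is reported as a within-array Z-score averaged across arrays of one protein sequence and across linkers.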

Fuc(a1-2)Gal(b1-3)GalNAc = molecular target: Fuc(a1-2)Gal(b1-3)GalNAc
In short: as §1

[1] = molecular target: Fuc(a1-2)Gal(b1-3)GalNAc(a1-3)[Fuc(a1-2)]Gal(b1-4)Glc
In short: as §1

[2] = molecular target: Fuc(a1-2)Gal(b1-3)GalNAc(a1-3)[Fuc(a1-2)]Gal(b1-4)GlcNAc
In short: as §1

[3] = molecular target: Fuc(a1-2)Gal(b1-3)GalNAc(b1-3)Gal
In short: as §1

[4] = molecular target: Fuc(a1-2)Gal(b1-3)GalNAc(b1-3)Gal(a1-4)Gal(b1-4)Glc
In short: as §1

[5] = molecular target: Fuc(a1-2)Gal(b1-3)GalNAc(b1-4)[Neu5Ac(a2-3)]Gal(b1-4)Glc
In short: as §1

Fuc(a1-2)Gal(b1-3)GlcNAc = molecular target: Fuc(a1-2)Gal(b1-3)GlcNAc
In short: as §1

[6] = molecular target: Fuc(a1-2)Gal(b1-3)GlcNAc(b1-2)Man(a1-3)[Fuc(a1-2)Gal(b1-3)GlcNAc(b1-2)Man(a1-6)]Man(b1-4)GlcNAc(b1-4)GlcNAc
In short: as §1

[7] = molecular target: Fuc(a1-2)Gal(b1-3)GlcNAc(b1-2)Man(a1-3)[Fuc(a1-2)Gal(b1-3)GlcNAc(b1-2)Man(a1-6)]Man(b1-4)GlcNAc(b1-4)[Fuc(a1-6)]GlcNAc
In short: as §1

[8] = molecular target: Fuc(a1-2)Gal(b1-3)GlcNAc(b1-3)Gal(b1-4)Glc
In short: as §1

[9] = molecular target: Fuc(a1-2)Gal(b1-3)GlcNAc(b1-3)GalNAc
In short: as §1

[10] = molecular target: Fuc(a1-2)Gal(b1-3)GlcNAc(b1-3)[Fuc(a1-2)Gal(b1-3)GlcNAc(b1-6)]GalNAc
In short: as §1

[11] = molecular target: Fuc(a1-2)Gal(b1-3)GlcNAc(b1-3)[Fuc(a1-3)[Gal(b1-4)]GlcNAc(b1-6)]Gal(b1-4)Glc
In short: as §1

[12] = molecular target: Fuc(a1-2)Gal(b1-3)GlcNAc(b1-3)[Gal(b1-4)GlcNAc(b1-6)]Gal(b1-4)Glc
In short: as §1

[13] = molecular target: Fuc(a1-2)Gal(b1-3)GlcNAc(b1-3)[Neu5Ac(a2-6)Gal(b1-4)GlcNAc(b1-6)]Gal(b1-4)Glc
In short: as §1

[14] = molecular target: Fuc(a1-2)Gal(b1-3)GlcNAc6S
In short: as §1

[15] = molecular target: Fuc(a1-2)Gal(b1-3)[Fuc(a1-4)]GlcNAc
In short: as §1

[16] = molecular target: Fuc(a1-2)Gal(b1-3)[Fuc(a1-4)]GlcNAc(b1-2)Man(a1-3)[Fuc(a1-2)Gal(b1-3)[Fuc(a1-4)]GlcNAc(b1-2)Man(a1-3)]Man(b1-4)GlcNAc(b1-4)GlcNAc
In short: as §1

[17] = molecular target: Fuc(a1-2)Gal(b1-3)[Fuc(a1-4)]GlcNAc(b1-2)Man(a1-3)[Fuc(a1-2)Gal(b1-3)[Fuc(a1-4)]GlcNAc(b1-2)Man(a1-6)]Man(b1-4)GlcNAc(b1-4)GlcNAc
In short: as §1

[18] = molecular target: Fuc(a1-2)Gal(b1-3)[Fuc(a1-4)]GlcNAc(b1-2)Man(a1-3)[Fuc(a1-2)Gal(b1-3)[Fuc(a1-4)]GlcNAc(b1-2)Man(a1-6)]Man(b1-4)GlcNAc(b1-4)[Fuc(a1-6)]GlcNAc(b1-4)[Fuc(a1-6)]GlcNAc
In short: as §1

[19] = molecular target: Fuc(a1-2)Gal(b1-3)[Fuc(a1-4)]GlcNAc(b1-3)[Fuc(a1-3)[Gal(b1-4)]GlcNAc(b1-6)]Gal(b1-4)Glc
In short: as §1

[20] = molecular target: Fuc(a1-2)Gal(b1-3)[Fuc(a1-4)]GlcNAc(b1-3)[Gal(b1-4)GlcNAc(b1-6)]Gal(b1-4)Glc
In short: as §1

[21] = molecular target: Fuc(a1-2)Gal(b1-4)Fuc(a1-3)]GlcNAc(b1-2)Man(a1-3)[Fuc(a1-2)Gal(b1-4)[Fuc(a1-3)]GlcNAc(b1-2)Man(a1-6)]Man(b1-4)GlcNAc(b1-4)GlcNAc
In short: as §1

Fuc(a1-2)Gal(b1-4)Glc = molecular target: Fuc(a1-2)Gal(b1-4)Glc
In short: as §1

Fuc(a1-2)Gal(b1-4)Glc6S = molecular target: Fuc(a1-2)Gal(b1-4)Glc6S
In short: as §1

Fuc(a1-2)Gal(b1-4)GlcNAc = molecular target: Fuc(a1-2)Gal(b1-4)GlcNAc
In short: as §1

[22] = molecular target: Fuc(a1-2)Gal(b1-4)GlcNAc(b1-2)Man
In short: as §1

[23] = molecular target: Fuc(a1-2)Gal(b1-4)GlcNAc(b1-2)Man(a1-3)[Fuc(a1-2)Gal(b1-4)GlcNAc(b1-2)Man(a1-6)]Man(b1-4)GlcNAc(b1-4)GlcNAc
In short: as §1

[24] = molecular target: Fuc(a1-2)Gal(b1-4)GlcNAc(b1-2)Man(a1-3)[Fuc(a1-2)Gal(b1-4)GlcNAc(b1-2)Man(a1-6)]Man(b1-4)GlcNAc(b1-4)[Fuc(a1-6)]GlcNAc
In short: as §1

B1: Gal 1 (Mus musculus), P16045 (protein)
chain: MACGLVASNLNLKPGECLKVRGEVASDAKSFVLNLGKDSNNLCLHFNPRFNAHGDANTIVCNTKEDGTWGTEHREPAFPFQPGSITEVCITFDQADLTIKLPDGHEFKFPNRLNMEAINYMAADGDFKIKCVAFE
Fuc(a1-2)Gal
  glycan array binding signal (z-score): -0.375
Fuc(a1-2)Gal(b1-3)GalNAc
  glycan array binding signal (z-score): -0.319
[1]
  glycan array binding signal (z-score): -0.352
[2]
  glycan array binding signal (z-score): -0.265
[3]
  glycan array binding signal (z-score): -0.273
[4]
  glycan array binding signal (z-score): -0.358
[5]
  glycan array binding signal (z-score): -0.1
Fuc(a1-2)Gal(b1-3)GlcNAc
  glycan array binding signal (z-score): -0.194
[6]
  glycan array binding signal (z-score): 0.069
[7]
  glycan array binding signal (z-score): -0.268
[8]
  glycan array binding signal (z-score): -0.229
[9]
  glycan array binding signal (z-score): -0.317
[10]
  glycan array binding signal (z-score): 0.022
[11]
  glycan array binding signal (z-score): 0.075
[12]
  glycan array binding signal (z-score): -0.005
[13]
  glycan array binding signal (z-score): 0.017
[14]
  glycan array binding signal (z-score): 0.093
[15]
  glycan array binding signal (z-score): -0.058
[16]
  glycan array binding signal (z-score): 0.655
[17]
  glycan array binding signal (z-score): 0.007
[18]
  glycan array binding signal (z-score): 0.125
[19]
  glycan array binding signal (z-score): -0.357
[20]
  glycan array binding signal (z-score): -0.128
[21]
  glycan array binding signal (z-score): 0.7
Fuc(a1-2)Gal(b1-4)Glc
  glycan array binding signal (z-score): -0.118
Fuc(a1-2)Gal(b1-4)Glc6S
  glycan array binding signal (z-score): -0.241
Fuc(a1-2)Gal(b1-4)GlcNAc
  glycan array binding signal (z-score): -0.279
[22]
  glycan array binding signal (z-score): -0.323
[23]
  glycan array binding signal (z-score): 0.532
[24]
  glycan array binding signal (z-score): 0.1
